The campaign covered roughly 200,000 compounds. About 4,500 (2.2%) were called active. The shares of active, inactive and inconclusive entries below differ from those in the screen. Calls follow the shape of the dose curve; as a rule, active = well fitted inhibition curve with a large enough effect; inconclusive = small, poorly fitted or top-dose-only effect, or effect the other way; inactive = flat fitted curve, though single readings scatter. Where the call is inconclusive, the potency comes from a doubtful curve fit.
Target: Cruzipain (Trypanosoma cruzi) (UniProt P25779)
UniProt P25779, sequence (P25779 whole entry, looked up): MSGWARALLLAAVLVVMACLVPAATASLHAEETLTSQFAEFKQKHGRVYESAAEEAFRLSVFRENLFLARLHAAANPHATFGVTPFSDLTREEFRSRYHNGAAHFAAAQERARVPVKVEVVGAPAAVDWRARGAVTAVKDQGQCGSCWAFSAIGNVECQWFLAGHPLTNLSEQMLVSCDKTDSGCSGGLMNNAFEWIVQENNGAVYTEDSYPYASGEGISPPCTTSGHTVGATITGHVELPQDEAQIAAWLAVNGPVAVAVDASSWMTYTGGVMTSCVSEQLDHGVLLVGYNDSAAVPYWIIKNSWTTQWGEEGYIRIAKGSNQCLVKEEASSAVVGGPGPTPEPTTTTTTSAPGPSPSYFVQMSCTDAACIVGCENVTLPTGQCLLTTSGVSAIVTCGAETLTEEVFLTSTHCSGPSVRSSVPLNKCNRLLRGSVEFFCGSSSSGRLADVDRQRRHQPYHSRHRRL
Assay: qHTS Assay for Promiscuous and Specific Inhibitors of Cruzain (without detergent); also: nearly all actives have a fitted effect of over 40% in size;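 as to max response, negative = inhibition: plate controls were enzyme without inhibitor for no effect and buffer without enzyme for full effect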
Details: purified cruzain, Z-FR-AMC fluorescence, no detergent
Procedure, shortened: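 Purified cruzain at 1.5 nM, pre-incubated 15 min with compound at room temperature in 100 mM sodium acetate pH 5.5, 5 mM DTT, 0.00005% Triton X-100. Reaction started with 2 uM Z-FR-AMC; AMC fluorescence increase over 60 s gives rate.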
Potency is read from the fitted curve at half-maximal effect; tags tell the direction and shape of the fitted curve.

Structure (SMILES)	Potency	max response, negative = inhibition
CCOc1ccc(N(CC(=O)N2CCN(c3ccccc3)CC2)S(=O)(=O)c2c(C)noc2C)cc1	inconclusive: 31.6 µM [activator, single point]	
CCn1c(COc2cccc(C)c2)nnc1SCC(=O)Nc1cccc(C(=O)OC)c1	inconclusive: 31.6 µM [activator, single point]	
CCCOc1ccc(CNC(=O)c2ccc3c(c2)N(Cc2ccccc2)CCS3)cc1		inactive: 1.73%
Cn1c(=O)cc(SCC(=O)NCCC2=CCCCC2)c2cc(Cl)ccc21	inconclusive: 39.8 µM [activator, single point]	
Nc1nc2ncc(=O)[nH]c2c(=O)[nH]1		inactive: 2.22%
CCCn1c(-c2ccc(F)cc2)nc2c(N3CCN(Cc4nc(OC)cc(OC)n4)CC3)nc(C)nc21	inconclusive: 39.8 µM [activator, single point]	
Cc1ccc(-c2ccc(=O)n(CC(=O)NCCc3ccc(Cl)cc3)n2)cc1	inconclusive: 39.8 µM [activator, single point]	
CCCNC(=O)Cn1c(=O)/c(=C\c2ccc(-c3ccc([N+](=O)[O-])cc3)o2)s/c1=C\C(=O)C(C)(C)C	inconclusive: 15.8 µM [inhibitor, partial curve, poor fit]	
COc1ccccc1-c1noc(-c2ccc(N3CCN(C)CC3)c([N+](=O)[O-])c2)n1		inactive: -20.6%
Cc1ccc(Cl)cc1N1CCN(C(=O)C2CCN(S(=O)(=O)Cc3ccccc3)CC2)CC1	inconclusive: 31.6 µM [activator, single point]	
CCOC(=O)c1c(C)c(-c2ccccc2)n(CC(=O)Nc2ccc(OCC)cc2)c1C		inactive: 6.18%
CCc1ccc(N(CC)C(=O)CCn2cnc3onc(-c4ccc(F)cc4)c3c2=O)cc1	inconclusive: 6.31 µM [activator, single point]	
COCCn1c(C)cc(C(=O)COC(=O)c2c(C)nn(Cc3ccccc3)c2C)c1C	inconclusive: 31.6 µM [activator, single point]	
COc1ccc2c(C=Nc3c(C)n(C)n(-c4ccccc4)c3=O)c(O)n(Cc3ccco3)c(=O)c2c1	inconclusive: 10 µM [activator, partial curve]	
N#CCSc1nc2ccc(N3CCOCC3)cc2c(=O)n1CCc1ccccc1	inconclusive: 39.8 µM [activator, single point]	
C=CCn1c(=O)/c(=C/c2ccc(F)cc2)s/c1=C(\C#N)c1nnc2n1CCCCC2	inconclusive: 25.1 µM [activator, single point]	
COc1nnc(-c2ccc(N3CCOCC3)c(NC(=O)C3CCCCC3)c2)c2ccccc12	inconclusive: 39.8 µM [activator, single point]	
COc1ccccc1Nc1nc(-c2ccc(F)cc2)c2c(n1)-c1ccccc1OC2	active: 10 µM	
CCOC(=O)c1c(NC(=O)CCC(=O)NCc2ccco2)sc2c1CCCC2	inconclusive: 39.8 µM [activator, single point]	
O=S1(=O)c2cccc3cccc(c23)N1Cc1ccc(-c2nnco2)cc1		inactive: -19.9%
N#C/C(=C(/O)COC(=O)COc1ccc(Cl)cc1)c1nc2ccccc2[nH]1	inconclusive: 25.1 µM [inhibitor, single point]	

Structure (SMILES)	Potency	max response, negative = inhibition
O=C(N/N=C/c1cc2cc3c(cc2nc1Cl)OCCO3)c1ccccc1O	inconclusive: 39.8 µM [inhibitor, single point]	
Cc1ccc(NCC(=O)N/N=C/c2cc3ccccc3nc2Cl)cc1	active: 25.1 µM	
COC(CNC(=O)CCc1c(C)nc2c(-c3ccc(F)cc3)c(C)nn2c1C)OC	inconclusive: 39.8 µM [activator, single point]	
O=C(CCC1CCCC1)N1CCc2c([nH]c3ccccc23)C1c1ccc(F)cc1 (configuration not stated)	inconclusive: 39.8 µM [inhibitor, single point]	
COc1ccc(-c2cc3nc(C)c(CCC(=O)NCc4ccccc4Cl)c(C)n3n2)c(OC)c1	inconclusive: 39.8 µM [activator, single point]	
Cc1nc2cc(NC(=O)CSc3nc4c(C)cccc4cc3C#N)ccc2s1	inconclusive: 39.8 µM [inhibitor, single point]	
COc1ccc(N(CC(=O)N2CCN(c3ccccc3)CC2)S(=O)(=O)c2c(C)nn(C)c2C)cc1	inconclusive: 2.51 µM [activator, full curve, poor fit]	
COc1ccc(OC)c(C2C(C(=O)Nc3nc4ccccc4s3)=C(C)NC3=C2C(=O)CCC3)c1 (configuration not stated)	inconclusive: 31.6 µM [activator, single point]	
CCN(CC)S(=O)(=O)c1cccc(C(=O)OCC(=O)Nc2ccc3c(c2)c2ccccc2n3CC)c1	active: 7.94 µM	
Cc1nn(-c2ccccc2)c2sc(C(=O)N(Cc3ccco3)C(C)C(=O)NC(C)(C)C)cc12 (configuration not stated)	inconclusive: 25.1 µM [activator, single point]	
CCOC(=O)C1C(=O)C=C(/C=C/c2ccccc2)CC1c1ccc(Cl)cc1 (configuration not stated)	inconclusive: 39.8 µM [inhibitor, single point]	
COc1ccc(N2C(=O)CCC(C(=O)Nc3cccc(C)n3)C2c2ccc(OC)c(OC)c2)cc1 (configuration not stated)	inconclusive: 39.8 µM [activator, single point]	
COc1ccc(C)cc1NC(=O)Cn1c(=O)oc2cc(S(=O)(=O)N3CCCCC3)ccc21	inconclusive: 39.8 µM [inhibitor, single point]	
Cc1ccc(Nc2ccc3cc(S(=O)(=O)N4CCCCC4)ccc3n2)cc1F	inconclusive: 25.1 µM [inhibitor, partial curve, poor fit]	
COc1ccc(N(C)S(=O)(=O)c2cccc(C(=O)OCC(=O)Nc3sc4c(c3C#N)CCCCC4)c2)cc1	active: 12.6 µM	
CCNc1ncc2ncc(=O)n(C[C@H]3CCCO3)c2n1		inactive: -14.5%
CCNc1nc(C)c2cc(Br)c(=O)n(CC)c2n1	inconclusive: 3.16 µM [activator, single point]	
Cc1sc(NC(=O)C2CCCCC2)c(C#N)c1-c1ccccc1	inconclusive: 31.6 µM [inhibitor, single point]	
COc1ccc(CC(=O)Nc2nc(-c3cccnc3)cs2)cc1	inconclusive: 31.6 µM [inhibitor, single point]	
O=C(CCCc1ccc(-c2ccccc2F)cc1)Nc1ccc(O)cc1	inconclusive: 39.8 µM [activator, single point]	
Cc1ccc(NC(=O)c2oc3ccc(S(=O)(=O)N4CCCCCC4)cc3c2C)c(C)c1		inactive: 3.93%

Structure (SMILES)	Potency	max response, negative = inhibition
C=C[C@@]1(C)CC[C@H](O)[C@H]2C(=O)CCC[C@@H]21		inactive: 2.75%
COc1cccc(-c2noc(COc3ccc(C(C)(C)C)cc3)n2)c1	inconclusive: 39.8 µM [inhibitor, single point]	
CSCCC(NC(=O)c1cccc(S(=O)(=O)N2CCOCC2)c1)C(=O)Nc1cccc(C)c1 (configuration not stated)	inconclusive: 39.8 µM [activator, single point]	
O=C(COC(=O)/C=C/c1cccs1)Nc1nc(-c2ccccc2)cs1	inconclusive: 31.6 µM [inhibitor, single point]	
CCOC(=O)C1C(=O)OC(C)(C)C1C(C)C(=O)c1ccc(C)cc1 (configuration not stated)		inactive: -2.32%
N#CCCCS(=O)(=O)c1nnnn1C1CCCCC1		inactive: 1.35%
COc1cccc(CN(CC2CCCO2)S(=O)(=O)c2ccc(S(=O)(=O)NCC3CCCO3)cc2)c1OC (configuration not stated)	inconclusive: 31.6 µM [activator, single point]	
CSc1nc2ccc(Nc3nc(N4CCOCC4)nc(N4CCOCC4)n3)cc2s1	inconclusive: 25.1 µM [activator, single point]	
COc1cc(-c2nc(S(=O)(=O)c3ccc(Cl)cc3)c(N3CCOCC3)o2)cc(OC)c1OC	inconclusive: 31.6 µM [activator, single point]	
COCCN(CCOC)C(=O)c1cc2sc3ccccc3c2s1	inconclusive: 39.8 µM [activator, single point]	
COc1cc2c(C)nc3onc(-c4ccccc4)c3c2cc1OC	inconclusive: 31.6 µM [activator, single point]	
CCn1c(SCC(=O)Nc2ccc(NC(=O)c3ccco3)c(OC)c2)nc2ccccc2c1=O	inconclusive: 10 µM [activator, partial curve]	
CCCCC(=O)NC(=S)Nc1ccccc1C(=O)Nc1ccccc1	inconclusive: 31.6 µM [inhibitor, single point]	
CCOc1ccc(NC(=O)c2oc(=O)c3ccccc3c2-c2ccc(C)cc2)cc1		inactive: -9.9%
CCN1CCN(C(=O)c2ccc3c(c2)N(Cc2ccc(F)cc2)C(=O)c2ccccc2S3(=O)=O)CC1		inactive: -9.22%
CCc1ccc(NC(=O)CSc2nnc(COc3ccc4c(c3)CCCC4)o2)cc1	active: 15.8 µM	
O=C1NC(=O)[C@]2(Cc3ccccc3N3CCN(c4ccccc4)CC32)C(=O)N1c1ccccc1 (some centres not stated)	inconclusive: 31.6 µM [activator, single point]	
Cc1cccc(C2=NN(c3ccccc3)[C@H](CO)[C@H]2C)c1	active: 35.5 µM	
C/C=C(/C)C(=O)O[C@H]1C(C)=C2[C@H]([C@@H]1OC(=O)CCCCCCC)[C@@](C)(OC(C)=O)C[C@H](OC(=O)CCC)[C@@]1(O)[C@H]2OC(=O)[C@@]1(C)O	inconclusive: 7.94 µM [activator, full curve]	
Cc1c(NC(=O)c2ccc(Cl)cc2)cc(C(C)C)c(O)c1S(=O)(=O)c1ccccc1	inconclusive: 39.8 µM [inhibitor, single point]	

Source: PubChem BioAssay AID1476 (National Center for Advancing Translational Sciences (NCATS), 2009)
